Measurements from the supplement of paper PMC3334620.
Over roughly 33,000 sequences, “E-score (-0.5 to 0.5)” has its median near -0.036; the highest 2% begin near 0.37. Some of the results follow.

The sequences below were run against T1, Yer064c (UniProt P40041) (assay: PBM E-score (8-mer binding enrichment) (E-score (-0.5 to 0.5)); higher = stronger / more preferred TF binding; most listed sequences are background and not binding sites). Conditions: protein concentration: 200 nM; construct: GST-full length.
T1 sequence: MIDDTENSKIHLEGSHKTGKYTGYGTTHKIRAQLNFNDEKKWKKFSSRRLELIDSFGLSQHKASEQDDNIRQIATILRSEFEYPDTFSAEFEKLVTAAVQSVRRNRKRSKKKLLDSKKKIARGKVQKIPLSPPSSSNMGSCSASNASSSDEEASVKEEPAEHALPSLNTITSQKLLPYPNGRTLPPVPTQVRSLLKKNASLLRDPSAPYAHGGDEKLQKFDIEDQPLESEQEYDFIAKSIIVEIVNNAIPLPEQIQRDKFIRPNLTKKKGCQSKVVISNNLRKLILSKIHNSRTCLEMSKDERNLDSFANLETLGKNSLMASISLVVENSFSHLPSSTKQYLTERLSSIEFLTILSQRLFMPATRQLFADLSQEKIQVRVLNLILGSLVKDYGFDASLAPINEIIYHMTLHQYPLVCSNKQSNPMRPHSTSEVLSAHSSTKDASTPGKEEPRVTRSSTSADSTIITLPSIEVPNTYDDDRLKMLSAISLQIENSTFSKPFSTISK
Procedure, shortened: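 E-scores (a modified Wilcoxon-Mann-Whitney statistic) were assigned by the Universal PBM Analysis Suite to every ungapped eight-base word pooled with its reverse complement. The input came from universal all-10-mer Agilent arrays made double-stranded by primer extension and probed with GST-tagged yeast transcription factors at about 100-200 nM. Fluorescent anti-GST detected bound protein, and masliner normalised the scans.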
In the case of AAACGTGG, the “PBM E-score” value is reported as -0.088. In the case of AGAGAAAT, the “PBM E-score” value is reported as -0.178. With GAGGTGCA the “PBM E-score” value was -0.0942. GCTCCTAA was tested, and the “PBM E-score” value was -0.241. AGGATCCC was tested, and the “PBM E-score” value was -0.289. For GCAACTGA, the “PBM E-score” value was 0.0985. For GCTCAGAA, the “PBM E-score” value was 0.0465. In the case of GTCGGAAC, the “PBM E-score” value is reported as -0.09. For GGTCAAAC, the “PBM E-score” value was -0.185. CCCTCGCA was tested, and the “PBM E-score” value was -0.135. ACACGCAG was tested, and the “PBM E-score” value was -0.0457. With GGGATAAA the “PBM E-score” value was -0.0655. In the case of CCTTTTGC, the “PBM E-score” value is reported as -0.226. In the case of ACTTTAAG, the “PBM E-score” value is reported as 0.162. GCATCCGC was tested, and the “PBM E-score” value was -0.171. In the case of ACGCCTGC, the “PBM E-score” value is reported as -0.265. In the case of ATCGGCCC, the “PBM E-score” value is reported as -0.00527. In the case of CCTCACTA, the “PBM E-score” value is reported as -0.111. For AAACAGAA, the “PBM E-score” value was -0.0269. In the case of TATTAGGA, the “PBM E-score” value is reported as 0.189. In the case of CTTCCAGA, the “PBM E-score” value is reported as -0.0775. For AATTCCAA, the “PBM E-score” value was -0.0347. With CGGCGTAA the “PBM E-score” value was 0.0756. CTCATACA was tested, and the “PBM E-score” value was 0.184. In the case of GCATGTGA, the “PBM E-score” value is reported as 0.0949. In the case of GTCGCATA, the “PBM E-score” value is reported as 0.268. For ATGGGTCG, the “PBM E-score” value was 0.0389. With GACATGCA the “PBM E-score” value was -0.115. In the case of CGACAGCA, the “PBM E-score” value is reported as -0.163. In the case of CGACCTTC, the “PBM E-score” value is reported as -0.201. For AGGCCTTC, the “PBM E-score” value was -0.231. For ACCTGAGT, the “PBM E-score” value was 0.29. With AGATACAG the “PBM E-score” value was -0.12. For ACTGGCAG, the “PBM E-score” value was 0.00876. For GATCTCGA, the “PBM E-score” value was 0.0378. In the case of AGGACGAT, the “PBM E-score” value is reported as 0.149. In the case of GGACGGTA, the “PBM E-score” value is reported as -0.23. In the case of CGCGCATA, the “PBM E-score” value is reported as -0.123. For CACGCGAC, the “PBM E-score” value was -0.0364. In the case of AGGAACCG, the “PBM E-score” value is reported as -0.139. With ATCGGAAT the “PBM E-score” value was 0.0595. For GCCTGTCA, the “PBM E-score” value was -0.095. With ACATAAGG the “PBM E-score” value was -0.0737. With CCTCTGGA the “PBM E-score” value was -0.129. AACTGACG was tested, and the “PBM E-score” value was -0.198. CCGTTCGC was tested, and the “PBM E-score” value was -0.00342. AAGCAACC was tested, and the “PBM E-score” value was -0.155. For ACACCCTA, the “PBM E-score” value was 0.0696. For CACATAAC, the “PBM E-score” value was 0.0804. In the case of AGTTGAAG, the “PBM E-score” value is reported as 0.127. With CCGCAGCC the “PBM E-score” value was -0.141. GGTTACTA was tested, and the “PBM E-score” value was -0.0192. With AACACATC the “PBM E-score” value was 0.206. For AGAGCGCT, the “PBM E-score” value was -0.188. For ATCCGACG, the “PBM E-score” value was 0.0248. In the case of CCTTTAAA, the “PBM E-score” value is reported as -0.203. For GCGACGAA, the “PBM E-score” value was -0.0428. In the case of ACGTAAAA, the “PBM E-score” value is reported as -0.0865. With AAGCAATG the “PBM E-score” value was -0.0165. For TAAGGCTA, the “PBM E-score” value was 0.0667. For AAGAGATT, the “PBM E-score” value was 0.0324. In the case of ACCTTACA, the “PBM E-score” value is reported as 0.00881. With CCGCACGC the “PBM E-score” value was 0.0407. GGAGATAA was tested, and the “PBM E-score” value was -0.0354. For ATAGTGCC, the “PBM E-score” value was -0.172. CCCTTGTC was tested, and the “PBM E-score” value was -0.245. With ACCTCACG the “PBM E-score” value was 0.00697. In the case of GGTATCGA, the “PBM E-score” value is reported as 0.0487. CTAATGCC was tested, and the “PBM E-score” value was -0.144. In the case of AACACAGG, the “PBM E-score” value is reported as -0.0744. With AGAGGATG the “PBM E-score” value was -0.129. In the case of CGTGAACC, the “PBM E-score” value is reported as 0.0296. With CTTCGGTA the “PBM E-score” value was -0.0743. In the case of AGTTCGAA, the “PBM E-score” value is reported as 0.0513. In the case of CTCTCAAC, the “PBM E-score” value is reported as -0.0783. GTAACAAA was tested, and the “PBM E-score” value was 0.00224. CACTGACC was tested, and the “PBM E-score” value was -0.124. GCCTCTTA was tested, and the “PBM E-score” value was -0.0591. In the case of AGGCTAAG, the “PBM E-score” value is reported as -0.179. CGATTACC was tested, and the “PBM E-score” value was 0.0503. With TCAGAGAA the “PBM E-score” value was 0.158. With AGACAAAT the “PBM E-score” value was 0.0231. In the case of CTTCGCTA, the “PBM E-score” value is reported as 0.05. For CATATAAG, the “PBM E-score” value was 0.0947. ACCGTATC was tested, and the “PBM E-score” value was -0.165. With CTTCATAA the “PBM E-score” value was 0.0699.
